These results are taken from the supplement of paper PMC12217912.

The labels stand for the following.
B1: TEV protease; numbered along this chain (parent)
chain: MGESLFKGPRDYNPISSSICHLTNESDGHTTSLYGIGFGPFIITNKHLFRRNNGTLVVQSLHGVFKVKDTTTLQQHLVDGRDMIIIRMPKDFPPFPQKLKFREPQREERICLVTTNFQTKSMSSMVSDTSCTFPSGDGIFWKHWIQTKDGQCGSPLVSTRDGFIVGIHSASNFTNTNNYFTSVPKNFMELLTNQEAQQWVSGWRLNADSVLWGGHKVFMVKPEEPFQPVKEATQL

The list shows a part of the results. Sequences were assembled here from the parent chain. Values near 0.05 are background.

In this assay the parent is B1. Nature of the assay: raw area under fraction-flipped curve 0-4 h after induction (AUC4h, not background-subtracted), DNA-recorder readout of cleavage of the substrate (dimensionless); higher = more cleavage of the substrate by the protease variant. Particulars: temperature: 34 °C; time window: 0-4 h after rhamnose induction.
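Note: Bxb1 expression induced with 0.2% (w/v) L-rhamnose at OD600 near 0.5, cultures sampled hourly, flipped fraction per protease–substrate barcode pair counted by paired-end Illumina sequencing.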

With Q234T, the “area with substrate ENDYFQS” value came to 0.0581, the “area with substrate ENEYFQS” value is 0.0592, the “area with substrate ENFYFQS” value worked out at 0.0642 and the “area with substrate ENGYFQS” value stood at 0.0579. Moreover, the “area with substrate ENHYFQS” value was determined as 0.0684, the “area with substrate ENIYFQS” value is 0.11, the “area with substrate ENKYFQS” value was 0.0633 and the “area with substrate ENQYFQS” value is 0.0559. Moreover, the “area with substrate ENRYFQS” value stood at 0.0545, the “area with substrate ENSYFQS” value came to 0.0598, the “area with substrate ENTYFQS” value was 0.0711 and the “area with substrate ENVYFQS” value amounted to 0.0696.
In the case of Q234S, the “area with substrate ENDYFQS” value was 0.0582, the “area with substrate ENEYFQS” value amounted to 0.0637, the “area with substrate ENFYFQS” value is 0.0434 and the “area with substrate ENGYFQS” value was 0.054. Moreover, the “area with substrate ENHYFQS” value is 0.0349, the “area with substrate ENKYFQS” value was 0.0718, the “area with substrate ENNYFQS” value was 0.0588 and the “area with substrate ENPYFQS” value came to 0.0562. Moreover, the “area with substrate ENQYFQS” value came to 0.0632, the “area with substrate ENSYFQS” value worked out at 0.0583, the “area with substrate ENTYFQS” value stood at 0.0536 and the “area with substrate ENVYFQS” value was 0.0748.
In the case of D137F, the “area with substrate ENDYFQS” value was 0.0739, the “area with substrate ENEYFQS” value was determined as 0.06, the “area with substrate ENGYFQS” value came out at 0.0537 and the “area with substrate ENIYFQS” value is 0.0782. The “area with substrate ENMYFQS” value stood at 0.102, the “area with substrate ENNYFQS” value stood at 0.0687, the “area with substrate ENQYFQS” value worked out at 0.0595 and the “area with substrate ENRYFQS” value worked out at 0.0558. Besides, the “area with substrate ENSYFQS” value was 0.0938, the “area with substrate ENTYFQS” value was found to be 0.0772 and the “area with substrate ENYYFQS” value worked out at 0.0549.
As for L156R, the “area with substrate ENDYFQS” value worked out at 0.0533, the “area with substrate ENEYFQS” value was found to be 0.0436, the “area with substrate ENFYFQS” value was found to be 0.05 and the “area with substrate ENGYFQS” value is 0.0615. The “area with substrate ENHYFQS” value amounted to 0.0551, the “area with substrate ENKYFQS” value is 0.0661, the “area with substrate ENNYFQS” value amounted to 0.0501 and the “area with substrate ENPYFQS” value is 0.0438. For the same variant, the “area with substrate ENQYFQS” value was 0.0345, the “area with substrate ENSYFQS” value was found to be 0.0288 and the “area with substrate ENTYFQS” value turned out to be 0.0504.
As for V183D, the “area with substrate ENDYFQS” value came to 0.0578, the “area with substrate ENEYFQS” value worked out at 0.0543, the “area with substrate ENGYFQS” value amounted to 0.0625 and the “area with substrate ENHYFQS” value was 0.0636. Moreover, the “area with substrate ENIYFQS” value was 0.0608, the “area with substrate ENMYFQS” value came out at 0.0428, the “area with substrate ENNYFQS” value is 0.0561 and the “area with substrate ENQYFQS” value worked out at 0.0377. Further, the “area with substrate ENRYFQS” value was 0.0483, the “area with substrate ENSYFQS” value worked out at 0.0555, the “area with substrate ENTYFQS” value stood at 0.0386 and the “area with substrate ENWYFQS” value turned out to be 0.0586.
As to V183W, the “area with substrate ENDYFQS” value worked out at 0.0282, the “area with substrate ENFYFQS” value amounted to 0.0541, the “area with substrate ENGYFQS” value was determined as 0.0655 and the “area with substrate ENHYFQS” value amounted to 0.0516. Moreover, the “area with substrate ENIYFQS” value was found to be 0.0804, the “area with substrate ENKYFQS” value was 0.0458, the “area with substrate ENMYFQS” value turned out to be 0.0507 and the “area with substrate ENNYFQS” value is 0.054. The “area with substrate ENRYFQS” value worked out at 0.0679, the “area with substrate ENSYFQS” value came to 0.062, the “area with substrate ENTYFQS” value is 0.0513 and the “area with substrate ENWYFQS” value turned out to be 0.0573. For the same variant, the “area with substrate ENYYFQS” value amounted to 0.0771.
Turning to K142W, the “area with substrate ENDYFQS” value worked out at 0.0725, the “area with substrate ENEYFQS” value worked out at 0.0645, the “area with substrate ENFYFQS” value was 0.066 and the “area with substrate ENGYFQS” value is 0.0586. In addition, the “area with substrate ENHYFQS” value came out at 0.0404, the “area with substrate ENIYFQS” value was determined as 0.0674, the “area with substrate ENKYFQS” value came to 0.0374 and the “area with substrate ENMYFQS” value came to 0.0572. Further, the “area with substrate ENNYFQS” value turned out to be 0.0536, the “area with substrate ENQYFQS” value stood at 0.0644, the “area with substrate ENRYFQS” value is 0.0593 and the “area with substrate ENSYFQS” value turned out to be 0.0573. Further, the “area with substrate ENTYFQS” value was 0.0635 and the “area with substrate ENVYFQS” value is 0.0465.
V229K: the “area with substrate ENDYFQS” value is 0.0592, the “area with substrate ENEYFQS” value is 0.0577, the “area with substrate ENFYFQS” value stood at 0.0763 and the “area with substrate ENKYFQS” value was determined as 0.0768. Moreover, the “area with substrate ENQYFQS” value came out at 0.0606, the “area with substrate ENRYFQS” value is 0.064, the “area with substrate ENSYFQS” value worked out at 0.0524 and the “area with substrate ENTYFQS” value was found to be 0.0546. The “area with substrate ENVYFQS” value worked out at 0.0741 and the “area with substrate ENWYFQS” value is 0.0531.
P94A: the “area with substrate ENEYFQS” value was 0.0595, the “area with substrate ENGYFQS” value was 0.0681, the “area with substrate ENHYFQS” value stood at 0.0501 and the “area with substrate ENQYFQS” value is 0.049. For the same variant, the “area with substrate ENYYFQS” value is 0.0601.
As for V126I, the “area with substrate ENDYFQS” value stood at 0.0583, the “area with substrate ENEYFQS” value worked out at 0.0602, the “area with substrate ENFYFQS” value is 0.0294 and the “area with substrate ENHYFQS” value came to 0.0882. For the same variant, the “area with substrate ENIYFQS” value was 0.0927, the “area with substrate ENKYFQS” value stood at 0.0576, the “area with substrate ENMYFQS” value came to 0.0666 and the “area with substrate ENPYFQS” value was 0.0628. The “area with substrate ENSYFQS” value was found to be 0.0773, the “area with substrate ENWYFQS” value worked out at 0.0488 and the “area with substrate ENYYFQS” value came out at 0.0441.
As for T174S, the “area with substrate ENDYFQS” value is 0.0665 and the “area with substrate ENWYFQS” value is 0.0413.
For the variant T174K, the “area with substrate ENDYFQS” value was found to be 0.063, the “area with substrate ENEYFQS” value was found to be 0.0698, the “area with substrate ENFYFQS” value came out at 0.0663 and the “area with substrate ENNYFQS” value was determined as 0.0672. The “area with substrate ENPYFQS” value was 0.0455, the “area with substrate ENSYFQS” value amounted to 0.0446 and the “area with substrate ENWYFQS” value was found to be 0.0643.
